Measured values from US20240252520A1 (priority 2023, published 2024).

Test system: THP-1 monocyte derived macrophages
Assay: Nicotinic and muscarinic receptor gene expression, THP-1 monocyte derived macrophages
Settings: M2 cells, 48 hours

## COP(=O)(OC)C(O)C(Cl)(Cl)Cl (stereo not shown) [metrifonate, (2,2,2-trichloro-1-hydroxyethyl) dimethylphosphonate]
  CHRM3, CHRNA3 and CHRNA7 expression: down-regulated
